Test results published in patent US20250282724A1, “BENZOTRIAZOLE COMPOUND” (DAIICHI SANKYO COMPANY, LIMITED, priority 2022, published 2025).

Target: GST-fused human Keap1 (amino acid residues: 325-642) protein (Homo sapiens, UniProt Q14145)
Experiment: FP assay (in vitro): inhibition of binding between Nrf2 and Keap1 by fluorescence polarization
Details: 20 nM GST-fused human Keap1, 10 nM FITC-labeled Nrf2 peptide, 2 hr at room temperature

| IC50 | SMILES |
| --- | --- |
| 10 to 30 nM | CC[C@@H]1CN(Cc2cc([C@@H](CC(=O)O)c3cnc4c(nnn4C)c3C)cc3ccsc23)C(C)c2nc(O)ccc2O1 (single isomer, unassigned) [Example 81, (3R)-3-(3,7-Dimethyl-3H-[1,2,3]triazolo[4,5-b]pyridin-6-yl)-3-(7-{[(2R,5S*)-2-ethyl-7-hydroxy-5-methyl-2,3-dihydropyrido[2,3-f][1,4]oxazepin-4(5H)-yl]methyl}-1-benzothiophen-5-yl)propanoic acid] |
| 30 to 100 nM | CC[C@@H]1CN(Cc2cc([C@@H](CC(=O)O)c3ccc4c(nnn4C)c3C)cc3ccsc23)C(C)c2nc(O)ccc2O1 (relative stereo) [Example 79, (3R)-3-(1,4-Dimethyl-1H-benzotriazol-5-yl)-3-(7-{[(2R,5R*)-2-ethyl-7-hydroxy-5-methyl-2,3-dihydropyrido[2,3-f][1,4]oxazepin-4(5H)-yl]methyl}-1-benzothiophen-5-yl)propanoic acid] |
| ≤ 10 nM | Cc1c([C@H](CC(=O)O)c2cc(CN3CC4(CC4)Oc4ccc(O)nc4C3C)c3sccc3c2)ccc2c1nnn2C (single isomer, unassigned) [Example 87, (3R)-3-(1,4-Dimethyl-1H-benzotriazol-5-yl)-3-(7-{[(5'S*)-7′-hydroxy-5′-methyl-3′H-spiro[cyclopropane-1,2′-pyrido[2,3-f][1,4]oxazepin]-4′ (5′ H)-yl]methyl}-1-benzothiophen-5-yl)propanoic acid] |
| 10 to 30 nM | CC[C@@H]1CN(Cc2cc([C@H](CC(=O)O)c3ccc4c(nnn4C)c3C)cc3ccsc23)[C@@H](C)c2ncccc2O1 [Example 62, (3S)-3-(1,4-Dimethyl-1H-benzotriazol-5-yl)-3-(7-{[(2R,5S)-2-ethyl-5-methyl-2,3-dihydropyrido[2,3-f][1,4]oxazepin-4(5H)-yl]methyl}-1-benzothiophen-5-yl)propanoic acid] |
